B1: traf2_out_19_16_1972 (protein)
chain: KEEELERIEKRLEEIEKRVEELEKYFEENEETLTREELSDLLVETSELKREAQRLKEELEKLEDYDPERVERLKKRAEEIIERAQRLANRIVDKYLELLK
B2: traf2_out_14_149_1248 (protein)
chain: AAEAELLRKAAELNEFIAKKLEEILKLLKEGKYEEAKKLLKKAIEEAKKLGEKLGVSTSQIFEMEELLELLDKNKEEAKKYAERLLKKARDAAEVLRSIA
B3: traf2_out_11_169_845 (protein)
chain: AEAEKNRKINDKALELNDKAKAELEKYVLELAKEEGLDVEAVKAIFEKNKNKSLSAVAAALIEYFKSLGKEDAAKAVLEKYEELKEEINKEMSAFLKELE
B4: traf2_out_17_178_1676 (protein)
chain: TKEEKRKKISELTDKYIDLAEATAARLLALAEAEGFMTPEELAALRAAQRRGNGRLVEALLERAIPRSPRAAEVAALLADYRARSRELAKEIAKALEEYE
B5: traf2_out_19_16_1977 (protein)
chain: KKEELEKLKKELEEIKKRVKELKKYFEENKDKLTREELSDLLVETSELKREALEIKQKLEELKDYDKEEVEKLIKEAEEVIKEAQRLMNKLVDRYLSLLK
B6: traf2_out_20_3_2191 (protein)
chain: SELEKKLEEELEKAIELLKKAAKLADPETAKKIEELIKRIKESRKLSYEDRLVVLSEVRREVLLLAEEAKKEGKEELAKVLEKAADALNRAMNILMKIIE
B7: traf2_out_17_162_1517 (protein)
chain: SALEEELKKLKEELEKLKKKLKELKEKLEKLKEMSKEELTDLLVEASEARREALELAERLRELKPEIGEEEAEKLIEEAEKIAEELNKIANKIYKELEKK
B8: traf2_out_18_167_1824 (protein)
chain: EEELKKRIEELTDELVRLSEVRRTARAALEAAATDPAAVPAALAATIAALRKVPEFRAAADRLEAAPEADLPALLEEVAAEAQRRANEVYKEREEALKKL
B9: traf2_out_11_155_725 (protein)
chain: DAAREAQNRIVDHNLEVGDRLLATVDAVIAAVAARDPAVAAALRATVARHRRFSATSAARAAIDLLRAAGLDAEAAALEAALAAAQREKSEFIKEVEAEL
B10: traf2_out_18_167_1883 (protein)
chain: EEELRRELEEATDRLVELSEIRRHLLLILEALEESREAARAALEAALAENPDSAVLKEAAEVFATKSDEEFRAFLEAKAEELQREANEAYERIEELRKLL
B11: traf2_out_18_167_1837 (protein)
chain: EEEIRKRREELSDRLVELSALKREARRALHALDTDPSRVPEELAALEREAAKIPELAPLVAAARAALAAGDRAALRAELERLIEEANRLANEVLEEYEKL
B12: traf2_out_5_189_2323 (protein)
chain: SEKEKENEELRERAKRLSKRVNELIAEAEAAGLSLEELRERLLEEIEKLPIEDAELYSGIAYSILEGTALANGDEELLAAARELRKEARAIIAKRRAEAA
B13: traf2_out_17_178_1724 (protein)
chain: TKEEWRKKISELTDEMIDLSEEAATKLLELAEAEGTLTPEELAALREARRRGSPNDTLALGERIAPKLKSQEEANKLIEEFKKKYRELAKKIAEAYKKYE
B14: traf2_out_5_63_2350 (protein)
chain: SERDELTALAREADALVRAMLAARAAGDEERLEALLEAAVADPELARTALGILRGEARYYKLLGDRPEEAAAAAELAARLEARLAERAAAEAAAAAAAAA
B15: traf2_out_13_95_1052 (protein)
chain: SKETAEKIMEVADRAEERALALLEAAQARFADDPEAAAVLDEALRLARTRGISEAIHLLEEAQAADPAHAAEFAALIAELEAIRREAGREVAKILKEEEE
B16: traf2_out_20_38_2007 (protein)
chain: SEEEEEKKREEELIKKAQEAYDEAEARIAAMKAAGKSVAEIAAETKKEVTELLTAAGLEEEAKELVEDVDIAEKSPNAERLLVRILARAKTLVYQKELNK
B17: traf2_out_13_95_1227 (protein)
chain: SAETNEKLRQVSNDMLDRAEAVLDALEARLAPHPAVQPDMAAVRRALREQGIRAAIAQLRAAAKRHPAVAADLEAAAAELEAIRREAGRRVAEILKEEEE
B18: traf2_out_18_3_1910 (protein)
chain: SEEERKEISEKIDEIVDEATARARAALDRLAAEHPAVAARAAALRADLDAGAGPFGILDALAELFREAGDEAAAAELEEFLREKRKELQELVDKYEELLK
B19: traf2_out_8_152_2545 (protein)
chain: ELEKLKEEVRKEVTELFDEALEASADNPELKAQVETARDYVLKLIDEGKVEEALNVAIANFSYLSLLAKERGDEELAAFFEELRKKLIELRKKYSEALEK

The source of these data is the supplement of paper PMC12632987.

Over roughly 1,800 sequences, “median log2 fold change of GCK-ALFA target abundance (FLAG IP / Myc IP barcode read proportion)” has its median near 0.14; the lowest 2% begin near -0.84. The list shows a part of the results.

The target of the assay is T1, TRAF2, Q12933.
T1 chain: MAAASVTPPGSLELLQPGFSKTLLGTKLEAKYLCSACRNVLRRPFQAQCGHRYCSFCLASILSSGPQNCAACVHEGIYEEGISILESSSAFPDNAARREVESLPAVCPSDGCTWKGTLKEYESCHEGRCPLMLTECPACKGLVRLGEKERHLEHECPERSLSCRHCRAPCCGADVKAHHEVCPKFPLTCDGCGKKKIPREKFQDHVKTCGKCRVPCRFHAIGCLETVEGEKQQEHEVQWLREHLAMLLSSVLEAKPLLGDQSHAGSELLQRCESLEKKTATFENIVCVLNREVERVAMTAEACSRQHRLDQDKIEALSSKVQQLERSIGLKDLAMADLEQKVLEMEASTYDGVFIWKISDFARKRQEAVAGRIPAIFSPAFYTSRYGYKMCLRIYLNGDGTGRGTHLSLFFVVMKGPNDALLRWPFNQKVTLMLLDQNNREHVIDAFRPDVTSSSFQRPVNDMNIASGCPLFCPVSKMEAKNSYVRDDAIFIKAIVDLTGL
In words: median log2 fold change of GCK-ALFA target abundance (FLAG IP / Myc IP barcode read proportion) (log2 ratio); each designed protein is fused to an ALFA-tag nanobody in HEK293 cells to bring the named protein to FLAG-tagged glucokinase (GCK); Myc marks an untargeted standard; higher = target protein stabilised (more abundant). The following applies: target protein: 3xFLAG-MCP-GCK-ALFA reporter; HEK293 landing pad (RPLP). The method, boiled down: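 Binders fused to an ALFA nanobody were recombined as a library into HEK293 landing-pad cells, which were induced with 2 μg mL^−1 doxycycline and then transfected to express a FLAG-tagged target and a Myc-tagged standard. After 48 h, circular RNA barcodes recovered by anti-FLAG and anti-Myc immunoprecipitation of lysates were reverse transcribed, amplified and sequenced. Each binder's target abundance is the median log2 ratio of FLAG to Myc barcode read proportions, from barcodes present at ≥10^−7 in both replicates, binders carrying ≥3 barcodes per replicate, a 10^−6 pseudocount and pooled replicates.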
Regarding B1, the “median log2 fold change” value is -0.00565.
On to B2, for which the “median log2 fold change” value turned out to be 0.0696.
For B3 the value was 0.112; for B4, -0.865; for B5, -0.295.
Take B6: the “median log2 fold change” value is -0.102.
For B7 the value was 0.344.
As to B8, the “median log2 fold change” value is 0.338.
Regarding B9, the “median log2 fold change” value was -0.0792.
With B10, the “median log2 fold change” value came out at 0.266.
Turning to B11, the “median log2 fold change” value stood at 0.152.
Take B12: the “median log2 fold change” value is 0.101.
As for B13, the “median log2 fold change” value is -0.000782.
With B14, the “median log2 fold change” value is -0.369.
On to B15, for which the “median log2 fold change” value is 0.114.
For the molecule B16, the “median log2 fold change” value was found to be 0.511.
For B17 the value was 0.139.
For B18 the value was 0.203; for B19, 0.216.
